Reference: PubChem BioAssay AID504466 (National Center for Advancing Translational Sciences (NCATS), 2011)
The whole screen tested about 330,000 compounds, of which about 4,200 (1.3%) were called active. The inconclusive results got no clear call from the source; some entries with a clear call stand among them for comparison. Calls come from the whole dose curve; as a rule, active = well fitted activation curve with a large enough effect; inconclusive = small, poorly fitted or top-dose-only effect; inactive = no such curve, though single readings can be large or run the other way. Where the call is inconclusive, the potency comes from a doubtful curve fit.
Potency is the fitted concentration of half-maximal effect; tags give direction and shape of the fitted curve.

Assay: qHTS screen for small molecules that induce genotoxicity in human embryonic kidney (HEK293T) cells expressing luciferase-tagged ELG1; note: nearly all actives have a fitted effect of over 60% in size
Conditions: HEK293T ELG1-luciferase reporter, luminescence, 16 h; series mostly up to 46 µM
Procedure, shortened: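 Step 1: seed 2,000 HEK293T ELG1-luciferase cells per well. Step 2: add compound or DMSO, incubate 16 hr at 37 °C. Step 3: ONE-Glo, 30 min at room temperature, read luminescence.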
For `CC(C)CCn1c(N)c(C(=O)NCc2cccs2)c2nc3ccccc3nc21`, the Potency was “inactive”.
With `C=CCN1C(=O)/C(=C/c2cc(C)n(-c3cccnc3)c2C)C(=O)NC1=S` the Potency was inconclusive: 29.1 µM [activator, partial curve, poor fit].
In the case of `O=C(C(=O)N1CCOCC1)c1cn(Cc2ccccc2F)c2ccccc12`, the Potency was “inactive”.
For `Oc1ccc2c3c1OC1[C@H](O)CC[C@@]4(O)[C@@H](C2)N(CC2CC2)CC[C@]314` (some centres undefined), the Potency was “inactive”.
In the case of `CCN(CC)C(=O)Oc1ccc2cc(Br)ccc2c1`, the Potency was inconclusive: 16.4 µM [activator, partial curve, poor fit].
In the case of `O=C(N/N=C/c1c(O)n(Cc2ccccc2)c(=O)[nH]c1=O)c1ccccc1O`, the Potency was “inactive”.
In the case of `CCC(C)/C=C(C)/C=C/C1=CC2=C(Cl)C(=O)C(C)(OC(C)=O)C(=O)C2=CO1` (centres undefined), the Potency was “inactive”.
With `O=P(O)(O)C#Cc1ccccc1` the Potency was inconclusive: 20.6 µM [activator, single point].
With `Cc1ncc2n1-c1ccc(Cl)cc1C(c1ccccc1F)=NC2` the Potency was inconclusive: 20.6 µM [activator, single point].
With `Cc1ccc(C(=O)Nc2nc3ccccc3[nH]2)cc1` the Potency was inconclusive: 0.092 µM [activator, full curve, poor fit].
In the case of `CCCCC(=O)N/N=C/c1c(O)n(CC)c(=S)n(CC)c1=O`, the Potency was inconclusive: 29.1 µM [activator, single point].
With `CCOc1ccc(NC(=O)c2c(C)nn(Cc3ccccc3)c2Cl)cc1` the Potency was inconclusive: 25.9 µM [activator, partial curve, poor fit].
In the case of `COc1cccc(N2C(=O)/C(=C/c3ccc(C)o3)C(=O)NC2=S)c1`, the Potency was “inactive”.
In the case of `O=C(Nc1ccc(Cl)c(C(F)(F)F)c1)NC1CC2CCCC(C1)N2Cc1ccccc1` (centres undefined), the Potency was inconclusive: 23.1 µM [activator, single point].
For `c1ccc(NC2=NCCS2)cc1`, the Potency was “inactive”.
With `CCNC(=O)O/N=C(\C)c1sc(-c2ccc(Cl)cc2)nc1C` the Potency was inconclusive: 2.06 µM [activator, partial curve].
In the case of `O=C(c1cc2c(s1)-c1ccccc1OC2)N1CCC2(CC1)OCCO2`, the Potency was inconclusive: 7.31 µM [activator, partial curve].
With `Cc1cc(OCC(=O)N2C[C@H]3C[C@@H](C2)c2cccc(=O)n2C3)c2c(C)c(C)c(=O)oc2c1` the Potency was inconclusive: 25.9 µM [activator, partial curve, poor fit].
With `O=c1[nH]c(=S)[nH]c(O)c1N=Nc1ccc2c(c1)OCCO2` the Potency was inconclusive: 6.51 µM [activator, partial curve].
With `O=C(c1sc2ccccc2c1Cl)N1CCC2(CC1)OCCO2` the Potency was inconclusive: 18.4 µM [activator, partial curve, poor fit].
With `Cn1nnc2cc(NC(=O)Nc3cccc(Cl)c3)ccc21` the Potency was inconclusive: 8.2 µM [activator, partial curve].
For `Cc1ccc(-n2c(O)c(/C=C3/C(c4ccccc4)=Nc4ccccc43)c(=O)[nH]c2=O)cc1`, the Potency was inconclusive: 32.6 µM [activator, partial curve, poor fit].
In the case of `O=C(O)CCCc1ccc(N(CCCl)CCCl)cc1`, the Potency was “inactive”.
With `Cc1oc(/N=C/c2ccc3c(c2)OCO3)c(C#N)c1C` the Potency was inconclusive: 10.3 µM [activator, partial curve].
For `CCC(=NCCc1ccccc1)c1c(O)[nH]c(=O)[nH]c1=O`, the Potency was inconclusive: 20.6 µM [activator, partial curve, poor fit].
With `O=C1NC(=O)C(=Cc2ccc(N3CCN(C(=O)c4ccccc4)CC3)c([N+](=O)[O-])c2)C(=O)N1` the Potency was “inactive”.
With `COc1cc(Cn2c(N)c(C(=O)NCc3ccco3)c3nc4ccccc4nc32)cc(OC)c1OC` the Potency was inconclusive: 20.6 µM [activator, partial curve, poor fit].
For `c1ccc(NC2=Nc3ccccc3CC2)cc1`, the Potency was active: 16.4 µM.
In the case of `COc1cc(CC2(CCc3ccncc3)C(=O)NC(=O)NC2=O)cc(OC)c1OC`, the Potency was “inactive”.
For `CCCCn1c(=O)c(C(=O)Nc2nc3ccccc3[nH]2)c(O)c2ccccc21`, the Potency was inconclusive: 16.4 µM [activator, partial curve].
With `c1ccc2nc(OCCN3CC3)ccc2c1` the Potency was inconclusive: 20.6 µM [activator, single point].
With `NCCNc1ccc([N+](=O)[O-])c2cccnc12` the Potency was inconclusive: 29.1 µM [activator, single point].
In the case of `O=Cc1cn(CCCOc2ccccc2)c2ccccc12`, the Potency was “inactive”.
For `CCCCOc1ccc(CN2CCN(CCO)CC2)cc1`, the Potency was inconclusive: 23.1 µM [activator, partial curve, poor fit].
For `O=C1NC(=O)C(=Cc2ccc(Sc3ccccc3)o2)C(=O)N1`, the Potency was inconclusive: 29.1 µM [activator, single point].
With `Cc1ccccc1N1C(=O)NC(=O)/C(=C\c2cnn(-c3ccccc3)c2)C1=O` the Potency was inconclusive: 25.9 µM [activator, single point].
In the case of `COc1ccc(C(=O)Nc2ccccc2-c2nnn(CC(=O)Nc3ccc4c(c3)OCCO4)n2)cc1`, the Potency was inconclusive: 32.6 µM [activator, partial curve, poor fit].
In the case of `Cc1ccc(-c2cc(NC(=O)c3ccccc3)on2)cc1`, the Potency was inconclusive: 14.6 µM [activator, partial curve].
In the case of `Cc1cc(NC(=O)COC(=O)c2c(C)nn(Cc3ccccc3Cl)c2Cl)no1`, the Potency was inconclusive: 23.1 µM [activator, partial curve, poor fit].
In the case of `C=CCn1c(O)c(C(CC)=NCc2ccco2)c(=O)[nH]c1=O`, the Potency was inconclusive: 20.6 µM [activator, single point].
With `CN(C)c1ccc(/C=C/[N+](=O)[O-])cc1` the Potency was inconclusive: 25.9 µM [activator, single point].
In the case of `CCC(COC(=O)NC)NC(=O)Oc1cccc(C)c1` (centres undefined), the Potency was “inactive”.
In the case of `COc1ccc(-c2cc(C(=O)N3CCC4(CC3)OCCO4)c3ccccc3n2)cc1`, the Potency was “inactive”.
For `Cn1c(=O)cc(OCC(=O)N2CCN(C3CCCCC3)CC2)c2ccccc21`, the Potency was inconclusive: 16.4 µM [activator, partial curve].
